Assay [1] addresses T1, FLAG-tagged wild-type AEG-1 (human) (UniProt Q86UE4).
T1 sequence: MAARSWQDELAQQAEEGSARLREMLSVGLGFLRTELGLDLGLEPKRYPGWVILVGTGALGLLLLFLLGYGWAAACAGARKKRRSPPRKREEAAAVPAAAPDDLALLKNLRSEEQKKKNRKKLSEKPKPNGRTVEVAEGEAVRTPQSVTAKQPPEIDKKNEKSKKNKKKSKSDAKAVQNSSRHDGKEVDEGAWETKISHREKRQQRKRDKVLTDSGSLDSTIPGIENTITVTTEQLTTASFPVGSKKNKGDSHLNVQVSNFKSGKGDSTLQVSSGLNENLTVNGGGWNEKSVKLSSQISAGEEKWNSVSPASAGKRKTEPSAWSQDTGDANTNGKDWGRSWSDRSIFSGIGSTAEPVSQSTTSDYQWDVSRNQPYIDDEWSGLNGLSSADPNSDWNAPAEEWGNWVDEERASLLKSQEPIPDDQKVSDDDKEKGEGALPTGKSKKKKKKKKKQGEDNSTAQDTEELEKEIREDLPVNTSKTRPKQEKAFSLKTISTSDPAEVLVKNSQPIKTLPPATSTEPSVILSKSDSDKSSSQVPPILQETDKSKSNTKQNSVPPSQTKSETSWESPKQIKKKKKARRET
As to the kind of experiment: co-IP; HEK293 cells with overexpressed wild-type or S298A AEG-1 (Supplementary Fig. 4a,c); bait and treatments not told in the text shown.

By UniProt entry, the sequences of proteins in these tests, tags left out.
UniProt Q04206: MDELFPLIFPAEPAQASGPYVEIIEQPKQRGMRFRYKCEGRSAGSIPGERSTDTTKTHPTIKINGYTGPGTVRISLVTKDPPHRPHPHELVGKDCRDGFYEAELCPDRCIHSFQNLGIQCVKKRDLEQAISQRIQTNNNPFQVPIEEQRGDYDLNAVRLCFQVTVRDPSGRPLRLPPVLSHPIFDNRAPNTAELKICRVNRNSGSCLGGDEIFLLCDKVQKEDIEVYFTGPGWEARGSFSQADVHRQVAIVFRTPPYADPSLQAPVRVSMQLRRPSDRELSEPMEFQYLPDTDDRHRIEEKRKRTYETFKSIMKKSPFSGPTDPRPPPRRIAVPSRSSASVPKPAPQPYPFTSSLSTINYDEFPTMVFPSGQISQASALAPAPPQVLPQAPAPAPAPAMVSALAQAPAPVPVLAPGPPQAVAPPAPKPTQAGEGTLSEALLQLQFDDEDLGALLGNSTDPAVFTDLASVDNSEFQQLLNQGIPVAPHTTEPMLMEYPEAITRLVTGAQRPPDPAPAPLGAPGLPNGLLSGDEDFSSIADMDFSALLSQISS
UniProt P25963: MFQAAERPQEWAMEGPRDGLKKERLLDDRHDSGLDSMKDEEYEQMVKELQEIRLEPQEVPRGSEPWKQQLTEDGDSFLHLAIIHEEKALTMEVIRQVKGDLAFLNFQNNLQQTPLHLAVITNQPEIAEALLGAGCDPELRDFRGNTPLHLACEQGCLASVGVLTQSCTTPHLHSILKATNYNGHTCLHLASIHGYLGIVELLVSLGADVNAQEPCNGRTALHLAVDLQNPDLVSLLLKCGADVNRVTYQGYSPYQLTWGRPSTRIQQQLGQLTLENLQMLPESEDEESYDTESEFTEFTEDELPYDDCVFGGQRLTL

The target of assay [2] is T2, FLAG-tagged AEG-1 S298A (human) (UniProt Q86UE4).
T2 sequence: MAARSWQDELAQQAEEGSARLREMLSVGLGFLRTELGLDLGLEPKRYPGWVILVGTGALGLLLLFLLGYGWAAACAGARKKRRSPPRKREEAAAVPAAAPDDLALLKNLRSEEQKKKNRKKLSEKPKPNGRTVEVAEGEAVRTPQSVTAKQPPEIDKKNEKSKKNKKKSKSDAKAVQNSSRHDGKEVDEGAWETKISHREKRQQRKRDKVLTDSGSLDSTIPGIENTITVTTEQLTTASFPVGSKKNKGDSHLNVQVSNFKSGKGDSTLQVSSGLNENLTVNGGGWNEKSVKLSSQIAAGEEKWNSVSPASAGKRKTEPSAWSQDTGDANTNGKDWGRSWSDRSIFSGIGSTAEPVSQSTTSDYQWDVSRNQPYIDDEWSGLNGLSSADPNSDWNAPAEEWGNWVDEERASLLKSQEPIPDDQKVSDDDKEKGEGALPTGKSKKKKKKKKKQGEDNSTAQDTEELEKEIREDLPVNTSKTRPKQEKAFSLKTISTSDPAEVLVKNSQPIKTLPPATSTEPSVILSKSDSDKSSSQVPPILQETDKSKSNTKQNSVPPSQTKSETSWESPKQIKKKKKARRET
The description is as above.

Assay [3] addresses T1, FLAG-tagged wild-type AEG-1 (human). Nature of the assay: co-IP; HEK293 cells transfected with FLAG-tagged WT or S298A AEG-1, serum-starved and stimulated with TNF-α (10 ng/ml); anti-FLAG agarose precipitation, RIPA buffer, immunoblot.
For assay [4], the target named is T2, FLAG-tagged AEG-1 S298A (human). Described as above.
The target in assay [5] is p65 subunit of NF-κB, endogenous in MCF-7 cells (human (endogenous in MCF-7)) (UniProt Q04206). As to the kind of experiment: co-IP; endogenous proteins immunoprecipitated from MCF-7 lysates (RIPA buffer, Protein A/G PLUS Agarose), immunoblot; AEG-1 siRNA knockdown as control of specificity. (In general: In western blotting, separated proteins are transferred to a membrane and probed.)

The target in assay [6] is T3, Astrocyte-Elevated Gene-1 (AEG-1), endogenous in MCF-7 cells (human (endogenous in MCF-7)) (UniProt Q86UE4).
T3 sequence: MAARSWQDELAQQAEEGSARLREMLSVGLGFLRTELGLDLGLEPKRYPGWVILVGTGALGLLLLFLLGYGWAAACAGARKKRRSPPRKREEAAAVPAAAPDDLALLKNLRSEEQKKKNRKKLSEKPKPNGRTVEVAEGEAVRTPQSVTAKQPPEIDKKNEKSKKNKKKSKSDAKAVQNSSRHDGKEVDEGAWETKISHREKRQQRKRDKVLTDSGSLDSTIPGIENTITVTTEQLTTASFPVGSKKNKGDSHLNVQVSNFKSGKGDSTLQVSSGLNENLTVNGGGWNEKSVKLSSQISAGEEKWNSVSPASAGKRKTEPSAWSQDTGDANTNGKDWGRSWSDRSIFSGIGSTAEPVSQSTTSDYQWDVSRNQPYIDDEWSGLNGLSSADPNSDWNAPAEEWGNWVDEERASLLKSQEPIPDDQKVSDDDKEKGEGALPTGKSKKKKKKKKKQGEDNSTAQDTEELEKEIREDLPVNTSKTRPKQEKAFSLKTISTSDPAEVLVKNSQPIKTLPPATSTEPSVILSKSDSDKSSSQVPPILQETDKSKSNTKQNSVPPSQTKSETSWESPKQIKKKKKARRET
The assay is described as above.

The values that follow come from publication PMC4396366.

No constants are given. Whether binding was seen depends on the method and setting. In cells and extracts the contact can be indirect. Some entries that bind do so weakly or less than the wild type. For some assays here: Tags and fused reporters may be left off the sequences shown.

With “IκBα in HEK293 cells (from UniProt P25963 1-317)”, the binding result was “binds” in assay [1] and “no binding” in assay [2].

For the molecule “p65 subunit of NF-κB in HEK293 cells (from UniProt Q04206 1-551)”, the binding result in assay [3] is on record as “binds”; in assay [4], “no binding”.

B1: Astrocyte-Elevated Gene-1 (AEG-1), endogenous in MCF-7 cells (protein, UniProt Q86UE4 1-582)
chain: MAARSWQDELAQQAEEGSARLREMLSVGLGFLRTELGLDLGLEPKRYPGWVILVGTGALGLLLLFLLGYGWAAACAGARKKRRSPPRKREEAAAVPAAAPDDLALLKNLRSEEQKKKNRKKLSEKPKPNGRTVEVAEGEAVRTPQSVTAKQPPEIDKKNEKSKKNKKKSKSDAKAVQNSSRHDGKEVDEGAWETKISHREKRQQRKRDKVLTDSGSLDSTIPGIENTITVTTEQLTTASFPVGSKKNKGDSHLNVQVSNFKSGKGDSTLQVSSGLNENLTVNGGGWNEKSVKLSSQISAGEEKWNSVSPASAGKRKTEPSAWSQDTGDANTNGKDWGRSWSDRSIFSGIGSTAEPVSQSTTSDYQWDVSRNQPYIDDEWSGLNGLSSADPNSDWNAPAEEWGNWVDEERASLLKSQEPIPDDQKVSDDDKEKGEGALPTGKSKKKKKKKKKQGEDNSTAQDTEELEKEIREDLPVNTSKTRPKQEKAFSLKTISTSDPAEVLVKNSQPIKTLPPATSTEPSVILSKSDSDKSSSQVPPILQETDKSKSNTKQNSVPPSQTKSETSWESPKQIKKKKKARRET
In the case of B1, in assay [5], the binding result was “binds”.

B2: IKKβ, endogenous in MCF-7 cells (enzyme, UniProt O14920 1-756)
chain: MSWSPSLTTQTCGAWEMKERLGTGGFGNVIRWHNQETGEQIAIKQCRQELSPRNRERWCLEIQIMRRLTHPNVVAARDVPEGMQNLAPNDLPLLAMEYCQGGDLRKYLNQFENCCGLREGAILTLLSDIASALRYLHENRIIHRDLKPENIVLQQGEQRLIHKIIDLGYAKELDQGSLCTSFVGTLQYLAPELLEQQKYTVTVDYWSFGTLAFECITGFRPFLPNWQPVQWHSKVRQKSEVDIVVSEDLNGTVKFSSSLPYPNNLNSVLAERLEKWLQLMLMWHPRQRGTDPTYGPNGCFKALDDILNLKLVHILNMVTGTIHTYPVTEDESLQSLKARIQQDTGIPEEDQELLQEAGLALIPDKPATQCISDGKLNEGHTLDMDLVFLFDNSKITYETQISPRPQPESVSCILQEPKRNLAFFQLRKVWGQVWHSIQTLKEDCNRLQQGQRAAMMNLLRNNSCLSKMKNSMASMSQQLKAKLDFFKTSIQIDLEKYSEQTEFGITSDKLLLAWREMEQAVELCGRENEVKLLVERMMALQTDIVDLQRSPMGRKQGGTLDDLEEQARELYRRLREKPRDQRTEGDSQEMVRLLLQAIQSFEKKVRVIYTQLSKTVVCKQKALELLPKVEEVVSLMNEDEKTVVRLQEKRQKELWNLLKIACSKVRGPVSGSPDSMNASRLSQPGQLMSQPSTASNSLPEPAKKSEELVAEAHNLCTLLENAIQDTVREQDQSFTALDWSWLQTEEEEHSCLEQAS
As to B2, the binding result in assay [6] was “binds”.

B3: IKKβ in HEK293 cells (enzyme, UniProt O14920 1-756)
chain: MSWSPSLTTQTCGAWEMKERLGTGGFGNVIRWHNQETGEQIAIKQCRQELSPRNRERWCLEIQIMRRLTHPNVVAARDVPEGMQNLAPNDLPLLAMEYCQGGDLRKYLNQFENCCGLREGAILTLLSDIASALRYLHENRIIHRDLKPENIVLQQGEQRLIHKIIDLGYAKELDQGSLCTSFVGTLQYLAPELLEQQKYTVTVDYWSFGTLAFECITGFRPFLPNWQPVQWHSKVRQKSEVDIVVSEDLNGTVKFSSSLPYPNNLNSVLAERLEKWLQLMLMWHPRQRGTDPTYGPNGCFKALDDILNLKLVHILNMVTGTIHTYPVTEDESLQSLKARIQQDTGIPEEDQELLQEAGLALIPDKPATQCISDGKLNEGHTLDMDLVFLFDNSKITYETQISPRPQPESVSCILQEPKRNLAFFQLRKVWGQVWHSIQTLKEDCNRLQQGQRAAMMNLLRNNSCLSKMKNSMASMSQQLKAKLDFFKTSIQIDLEKYSEQTEFGITSDKLLLAWREMEQAVELCGRENEVKLLVERMMALQTDIVDLQRSPMGRKQGGTLDDLEEQARELYRRLREKPRDQRTEGDSQEMVRLLLQAIQSFEKKVRVIYTQLSKTVVCKQKALELLPKVEEVVSLMNEDEKTVVRLQEKRQKELWNLLKIACSKVRGPVSGSPDSMNASRLSQPGQLMSQPSTASNSLPEPAKKSEELVAEAHNLCTLLENAIQDTVREQDQSFTALDWSWLQTEEEEHSCLEQAS
For B3, the binding entry in assay [1] and in assay [2] was “binds” each time.
